# Data: PubChem BioAssay AID1345083 (National Center for Advancing Translational Sciences (NCATS), 2018)
# The campaign covered roughly 94,000 compounds. About 6,200 (6.6%) were called active. This list was built around the results that the source calls inconclusive (neither active nor inactive); the mix of calls is not that of the screen. Calls come from the whole dose curve; as a rule, active = well fitted inhibition curve with a large enough effect; inconclusive = small, poorly fitted or top-dose-only effect; inactive = flat fitted curve, though single readings scatter. A potency beside an inconclusive call is a rough fit, not a confirmed value.
# Experiment: Cytotoxic Profiling in HEK 293 Cell Line of Diverse Libraries Using Quantitative High-Throughput Screening; note: nearly all actives have a fitted effect of over 60% in size
# Details: HEK 293 viability, ATP luminescence (CellTiter-Glo), 48-72 h; series mostly up to 115 µM
# Method in brief: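 250 HEK 293 cells/well; compound by pintool; incubated 48 or 72 hr at 37 degree Celsius; CellTiter-Glo added, 10 min RT, luminescence imaged.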
# Potency is the fitted concentration of half-maximal effect; tags give direction and shape of the fitted curve.
row,Structure (SMILES),Potency
1,COc1ccc(CCNC(=O)c2c(C)noc2-c2ccc(OC(F)(F)F)cc2)cc1,active: 50.1 µM
2,O=C(NCc1cccc(F)c1)N1CCc2nc3cc(-c4ccccc4)[nH]n3c(=O)c2C1,"inconclusive: 79.4 µM [inhibitor, partial curve, poor fit]"
3,COc1ccc(Nc2cc3c(cn2)CN(CCc2ccccc2)CCN3)cc1OC,active: 50.1 µM
4,Cc1cn2nc(C(=O)N3CCC(NC(=O)c4sccc4C)CC3)cc2c(=O)[nH]1,inactive
5,Cc1ccc(CNC(=O)N2CC[C@@H]3C(=O)NCCCCCCN(Cc4ccncc4)[C@@H]3C2)cc1,inactive
6,Cn1cc(CN2C[C@@H]3C[C@H]2C(=O)N(CC2CC2)c2ccccc2O3)c2ccccc21,"inconclusive: 63.1 µM [inhibitor, full curve, poor fit]"
7,O=C(c1nc(-c2ccc(Cl)cc2Cl)c2ccccn12)N1CCCC1,"inconclusive: 79.4 µM [inhibitor, single point]"
8,Cc1nn(C)c(C)c1CN(Cc1ccc2c(C)cc(=O)oc2c1)C1CC1,"inconclusive: 11.2 µM [inhibitor, full curve, poor fit]"
9,Cc1cc(C(=O)N2CC(Oc3cccc(-c4nc(-c5ccccc5)no4)c3)C2)n[nH]1,inactive
10,N#Cc1cccc(CN2CCC3(CC2)CC(Cc2nc(C4CC4)no2)CCO3)c1 (stereo not given),active: 44.7 µM
11,CC1CCN([C@@H]2[C@H](O)[C@H](CO)O[C@@H]2CNC(=O)Nc2ccccc2)CC1,inactive
12,N#Cc1ccc(C(=O)NC2CCN(c3cc(-c4ccc(Cl)cc4)[nH]n3)C2)cc1 (stereo not given),active: 44.7 µM
13,O=c1n(Cc2ccc(F)cc2)nc2n1CCCCC2,inactive
14,CC(Oc1ccccc1)C(=O)Nc1cnc(-c2cccc(Cl)c2)nc1 (stereo not given),"inconclusive: 50.1 µM [inhibitor, partial curve, poor fit]"
15,COC(=O)c1ccc(NCC2=CC(C)(C)COc3ccc(OC)cc32)cc1,"inconclusive: 25.1 µM [inhibitor, full curve]"
16,Cc1nn(-c2ccccc2)c(C)c1[C@@H]1C=C[C@@H](NCc2cccc(C#N)c2)C1,active: 63.1 µM
17,O=C(Nc1ccc(F)c(Cl)c1)N1CCC(Oc2ncccc2C(=O)N2CCCCC2)C1 (stereo not given),inactive
18,COCCC1(NS(C)(=O)=O)CCN(C(=O)Nc2ccc3c(c2)OCCO3)CC1,inactive
19,O=S(=O)(c1ccccc1)N1CCC(c2nc(-c3ccccc3)no2)C1 (stereo not given),"inconclusive: 56.2 µM [inhibitor, partial curve, poor fit]"
20,COc1ccc(-c2cccc(C(=O)N3CCN(C(=O)c4ccc(C(F)(F)F)cc4)CC3)c2)nn1,"inconclusive: 79.4 µM [inhibitor, partial curve, poor fit]"
21,N#Cc1cccnc1-c1ccc(C(=O)N2CCC(NC(=O)Nc3ccc(Cl)cc3)CC2)cc1,"inconclusive: 35.5 µM [inhibitor, partial curve, poor fit]"
22,COc1ccc(C)cc1NC(=O)Cn1ccn2nc(-c3ccc(F)cc3)c(CO)c2c1=O,"inconclusive: 44.7 µM [inhibitor, partial curve]"
23,CCOCc1nc(C2CCCN(C(=O)c3ccnn3C)C2)no1 (stereo not given),inactive
24,COCC1CN(Cc2sccc2C)CC12CCNCC2 (stereo not given),"inconclusive: 50.1 µM [inhibitor, partial curve, poor fit]"

row,Structure (SMILES),Potency
1,COc1ccc(-c2ccnc3nc(-c4cccs4)nn23)c(F)c1,inactive
2,O=C(NCc1cccs1)c1ccc2c(c1)OCCN(CCC(F)(F)F)C2,"inconclusive: 112 µM [inhibitor, single point]"
3,O=C(c1ccccc1Cl)N1CCCC(c2nn(-c3ccccc3)c(=O)[nH]2)C1 (stereo not given),"inconclusive: 50.1 µM [inhibitor, partial curve, poor fit]"
4,O=C(Nc1cc(-c2ccccn2)nn1-c1ccccc1)C1CC1,inactive
5,COc1ccc(NC(=O)[C@@H]2C[C@@H](c3ccc(F)cc3)N([S+](=O)([O-])c3ccccc3)C2)cc1,"inconclusive: 44.7 µM [inhibitor, partial curve, poor fit]"
6,O=C(Cn1cccc1-c1nc(-c2ccc(F)cc2)no1)Nc1cccc(Cl)c1,inactive
7,COCCCn1c(C)cnc1C1CCN(C(=O)NCC(=O)OC)C1 (stereo not given),inactive
8,CC(=O)Nc1ccc(CN2CCC3(CC(c4cccc(C(F)(F)F)c4)=NO3)C2)cc1 (stereo not given),"inconclusive: 79.4 µM [inhibitor, partial curve, poor fit]"
9,O=C(NC1CCCN(CCn2nc3n(c2=O)CCCC3)C1)c1ccccn1 (stereo not given),inactive
10,COc1ccc(C(=O)N2CCC[C@H]2c2nc(-c3ccc(OC)c(OC)c3)no2)c(C)c1,"inconclusive: 50.1 µM [inhibitor, partial curve, poor fit]"
11,CN(Cc1ccc(F)cc1)S(=O)(=O)c1cccs1,active: 79.4 µM
12,CC(C(=O)NC1CCN(c2cnn(CC3CC3)c(=O)c2)CC1)c1ccccc1 (stereo not given),"inconclusive: 22.4 µM [inhibitor, partial curve, poor fit]"
13,NCc1ccccc1-c1cccs1,inactive
14,COc1ccc(Nc2ccnc(N3CCN(C(=O)Nc4ccc(Cl)cc4)CC3)n2)cc1,"inconclusive: 14.1 µM [inhibitor, full curve, poor fit]"
15,COc1ccc(CN2CCCC23Cc2ccccc2CNC3=O)cc1 (stereo not given),inactive
16,Cc1ccncc1C(=O)N1CCC2(CC1)CC(N1CCN(c3ccccn3)CC1)CCO2 (stereo not given),inactive
17,Cc1ccc(Nc2ccnc(N3CCC(NC(=O)C4CC4)CC3)n2)cc1,active: 44.7 µM
18,C=CCn1cc2c3c(cccc31)[C@H](CC(C)C)N[C@H](C(=O)NCC1CC1)C2,active: 79.4 µM
19,COc1ccc(CN2C[C@H](O)C[C@H]2c2nc(-c3ccc(F)cc3)no2)c(OC)c1OC,inactive
20,CC(=O)Nc1cccc(C(=O)NC2CCCN(c3cc(-c4ccc(F)cc4)[nH]n3)C2)c1 (stereo not given),"inconclusive: 50.1 µM [inhibitor, partial curve, poor fit]"
21,CC(C)=CCN1C[C@H](NC(=O)CCc2cccs2)C[C@H]1C(=O)NC(C)C,inactive
22,CNC(=O)c1cccc(-c2cnc(Nc3ccncc3)c3c2CCO3)c1,"inconclusive: 100 µM [inhibitor, partial curve, poor fit]"
23,COc1ccc(NC(=O)CCc2ccc3c(c2)CN(C(=O)NC(C)C)CCO3)cn1,active: 79.4 µM
24,CCNC(=O)N1CC(C(=O)NCc2ccccc2)CC(c2ccc(F)c(C)c2)C1 (stereo not given),"inconclusive: 50.1 µM [inhibitor, partial curve, poor fit]"

row,Structure (SMILES),Potency
1,Cc1ccc(C(=O)N2CCC(Oc3ccc(C(=O)N(C)C)cn3)CC2)cc1F,"inconclusive: 100 µM [inhibitor, partial curve, poor fit]"
2,COc1ccccc1CNC(=O)C1CCCN1Cc1cccc(-c2ccc(C)c(Cl)c2)c1 (stereo not given),active: 39.8 µM
3,Cc1ccc(NC(=O)N(C)CC2CCOC2)cc1F (stereo not given),inactive
4,O=C1CCN(C(=O)C2CCCCC2)CCCC(c2nc(-c3ccccc3)no2)CCN1 (stereo not given),"inconclusive: 79.4 µM [inhibitor, partial curve, poor fit]"
5,Cc1ccccc1C(=O)N1CCC2(CC1)CC(c1cccc(C(F)(F)F)c1)=NO2,active: 31.6 µM
6,O=S(=O)(Nc1cccn2ncnc12)c1ccc(C2CCCCC2)cc1,"inconclusive: 50.1 µM [inhibitor, partial curve, poor fit]"
7,Cc1ncccc1C(=O)N1CCC(Oc2ccc(-c3noc(-c4ccccc4)n3)cc2)C1 (stereo not given),"inconclusive: 10 µM [inhibitor, full curve, poor fit]"
8,Cc1nc(CCNC(=O)C2CNCCO2)sc1C (stereo not given),inactive
9,COC(=O)C1=C(C)N=C2SC=C(CC(=O)Nc3ccc(F)cc3)N2C1c1ccc(OC)cc1OC (stereo not given),"inconclusive: 89.1 µM [inhibitor, partial curve, poor fit]"
10,CN(Cc1ccccc1)Cc1cn([C@H]2CO[C@H]3[C@@H]2OC[C@@H]3NCc2ccco2)nn1,inactive
11,Cc1noc2ccc(-c3ccccc3OCc3ccccc3)nc12,"inconclusive: 89.1 µM [inhibitor, partial curve]"
12,Cc1cc(N2CCCN(c3nccc(-c4c(C)nn(C)c4C)n3)CC2)ccn1,"inconclusive: 100 µM [inhibitor, partial curve, poor fit]"
13,Cc1noc(C)c1[S+](=O)([O-])N1CCC2(CC1)COc1ccccc1NC2=O,inactive
14,COc1ccccc1NC(=O)c1c(C)oc2c1CN(Cc1ccc(F)cc1)CC2,"inconclusive: 89.1 µM [inhibitor, single point]"
15,Cc1ccc(C2Cn3nnc(C(=O)N4CCC(C(=O)NC5CCCC5)CC4)c3CO2)cc1 (stereo not given),inactive
16,COc1ccccc1-c1[nH]nc2ncc(-c3ccccc3C)nc12,active: 50.1 µM
17,O=C(NCc1ccccc1)c1ccc2nc(-c3ccncc3)oc2c1,inactive
18,O=C(NC1CCN(c2cc(-c3cccs3)[nH]n2)C1)c1cc(Cl)ccc1F (stereo not given),"inconclusive: 56.2 µM [inhibitor, partial curve, poor fit]"
19,CC(C)C(=O)N1CCCCCNC(=O)[C@@H]2CCCC[C@@H]21,inactive
20,CC(C)CCN1CCC2(CC1)OC(=O)N(Cc1ccc(O)cc1)C2(C)c1ccccc1 (stereo not given),"inconclusive: 79.4 µM [inhibitor, partial curve, poor fit]"
21,CN1C[C@H](C(=O)Nc2nccs2)C[C@H]1c1cccc(C(F)(F)F)c1,"inconclusive: 89.1 µM [inhibitor, partial curve, poor fit]"
22,O=C(NCc1ccco1)c1ccc2c(c1)N(C(=O)c1ccc(F)cc1)CC2,"inconclusive: 56.2 µM [inhibitor, partial curve, poor fit]"
